Results: publication PMC4336329 (PLoS ONE, 2015)
The campaign covered roughly 310,000 compounds. About 2,200 (0.71%) showed an effect of 50% or more. Effects have a minus sign here. This is one part of the list.

target: human ether-à-go-go-related gene (hERG) potassium channel (human, UniProt Q12809); assay: primary screen, population patch clamp on CHO cells stably expressing hERG
Sequence (Q12809 whole entry, looked up): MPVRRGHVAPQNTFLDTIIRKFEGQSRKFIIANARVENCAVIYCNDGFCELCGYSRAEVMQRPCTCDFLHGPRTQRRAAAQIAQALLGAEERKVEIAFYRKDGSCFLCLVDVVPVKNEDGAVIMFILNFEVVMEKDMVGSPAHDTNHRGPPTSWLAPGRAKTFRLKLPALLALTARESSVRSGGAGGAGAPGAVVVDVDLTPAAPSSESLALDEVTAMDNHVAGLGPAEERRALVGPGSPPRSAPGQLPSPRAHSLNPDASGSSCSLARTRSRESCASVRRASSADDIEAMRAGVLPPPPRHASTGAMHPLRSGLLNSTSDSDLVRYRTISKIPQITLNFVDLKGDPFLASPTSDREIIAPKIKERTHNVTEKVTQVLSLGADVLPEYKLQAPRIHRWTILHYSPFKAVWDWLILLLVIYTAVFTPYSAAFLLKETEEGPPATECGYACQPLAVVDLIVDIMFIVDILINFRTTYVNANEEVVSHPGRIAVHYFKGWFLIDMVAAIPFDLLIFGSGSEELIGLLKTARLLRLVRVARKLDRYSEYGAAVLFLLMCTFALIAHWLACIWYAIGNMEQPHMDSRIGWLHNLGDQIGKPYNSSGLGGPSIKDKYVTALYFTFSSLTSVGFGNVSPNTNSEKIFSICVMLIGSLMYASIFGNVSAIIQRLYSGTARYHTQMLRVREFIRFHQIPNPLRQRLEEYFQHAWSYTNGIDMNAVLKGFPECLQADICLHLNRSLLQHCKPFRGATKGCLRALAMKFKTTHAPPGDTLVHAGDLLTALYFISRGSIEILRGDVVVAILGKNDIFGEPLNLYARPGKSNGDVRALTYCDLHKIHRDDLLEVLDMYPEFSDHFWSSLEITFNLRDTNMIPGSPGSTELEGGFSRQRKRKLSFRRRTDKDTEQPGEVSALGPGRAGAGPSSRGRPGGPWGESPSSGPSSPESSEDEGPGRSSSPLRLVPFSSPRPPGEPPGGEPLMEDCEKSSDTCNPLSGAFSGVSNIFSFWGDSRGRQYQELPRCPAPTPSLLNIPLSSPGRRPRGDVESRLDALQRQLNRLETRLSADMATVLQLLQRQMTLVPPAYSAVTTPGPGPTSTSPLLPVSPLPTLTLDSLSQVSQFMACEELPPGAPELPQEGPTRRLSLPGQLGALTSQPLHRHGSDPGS

| Compound | hERG current change (%, negative = inhibition) at 1uM [%] |
| --- | --- |
| CCCCCn1c(=O)[nH]c2cc(C(=O)NCCCN(C)Cc3ccccc3)ccc2c1=O | 12.3 |
| CCOc1ccc2sc(NS(=O)(=O)c3ccc(N)cc3)nc2c1 | 14.7 |
| Cc1ccc(C(=O)NC(O)C(Cl)Cl)cc1 (centres unmarked) | 9.77 |
| CC(=O)Nc1ccc(S(=O)(=O)N2CCN(CC(=O)N3CCOCC3)CC2)cc1 | 13.3 |
| COc1ccccc1NC(=O)CCN1C(=O)C2C3CCC(C3)C2C1=O (centres unmarked) | 11.9 |
| COc1ccccc1CCN1CCCC(CN(C)Cc2ccc(OCCO)cc2)C1 (centres unmarked) | 5.87 |
| Cc1ccccc1CSc1nnc(Cn2c(=O)sc3ccccc32)n1C | 5.52 |
| COc1ccc(Cl)cc1C(=O)Nn1cnnc1 | 10.6 |
| COc1nc(N)nc(N2CCOCC2)n1 | 11.3 |
| Cc1ccc(NC(=O)c2cc3cc(OC(F)(F)F)ccc3[nH]2)cc1 | 11.9 |
| COc1cccc(C2CCCCN2Cc2nc(-c3ccc(C)o3)oc2C)c1 (centres unmarked) | 10.7 |
| COc1ccc2c(C)cc(N3CCCCCC3)nc2c1.O=C(O)C(=O)O | -43.3 |
| Cc1ccccc1OCC(=O)NNC(=O)Cc1ccc(S(=O)(=O)N2CCOCC2)s1 | 7.82 |
| N#Cc1ccc(S(=O)(=O)NCC(=O)OCC(=O)NCCc2ccccc2)cc1 | 14.7 |
| O=C(NNC(=O)c1ccc(-c2ccccc2)cc1)Nc1ccccc1F | 9.13 |
| Cc1cc(OCc2cccc(Cl)c2)c(C)cc1CN1CCOCC1 | 2.52 |
| O=C(Nc1nc2ccccc2c(=O)[nH]1)c1ccccc1SCc1ccccc1 | 17.6 |
| CN1CCc2c(sc(N)c2C(N)=O)C1 | 10.8 |
| COc1ccc(S(=O)(=O)N2CCC3(CC2)CC(=O)c2ccccc2O3)cc1C | 4.71 |
| COc1ccc(C(=O)Nc2ccc(Cl)c(S(=O)(=O)Nc3ccccc3OC)c2)cc1 | -3.45 |
| Cl.c1ccc(CN2CCN(c3nc(NCc4ccco4)c4ccccc4n3)CC2)cc1 | -54.5 |
| COCCCNC(=O)C1CCC(CNS(=O)(=O)c2ccc(Cl)cc2)CC1 (centres unmarked) | -0.312 |
| COc1ccc(CCCc2nnc(SCC(=O)Nc3cc(C)c(C)cc3Br)o2)cc1 | 2.85 |

| Compound | hERG current change (%, negative = inhibition) at 1uM [%] |
| --- | --- |
| O=C(NCC1CCCO1)c1ccc(OC2CCN(C(=O)C3CC3)CC2)cc1 (centres unmarked) | 11.4 |
| CCOCc1nc(C)c(Cl)c(NS(=O)(=O)c2ccc(N)cc2)n1 | 14.7 |
| CS(=O)(=O)N1CCc2cc(NC(=O)c3ccc(Cl)cc3Cl)ccc21 | 15.5 |
| Cl.OC1(CN2CCOCC2)C2CC3CC(C2)CC1C3 (centres unmarked) | 8.05 |
| O=C(Nc1ccccn1)C1CCN(S(=O)(=O)c2ccc(Cl)cc2)CC1 | 11.1 |
| COc1ccc2c(c1)O/C(=C\c1ccccc1O)C2=O | 21.2 |
| Oc1ccc(N=Cc2c(O)ccc3ccccc23)cc1 | 13.2 |
| COc1ccc(C(=O)OCn2nnc3ccccc3c2=O)cc1[N+](=O)[O-] | 1.82 |
| CCCCOc1ccc(NC2=NC3(CCCC3)N=C(N)N2)cc1 | 15.9 |
| CN(CC(=O)Nc1cccc(F)c1)C(=O)c1ccccc1OCCOc1ccccc1 | 8.56 |
| CSc1ccc(CCNC(=O)CN2C(=O)c3cccnc3Oc3ccc(C)cc32)cc1 | -5.21 |
| O=C(NC(=S)Nc1cccc([N+](=O)[O-])c1)c1ccccc1 | 12.4 |
| COc1cc(OC)c(C2=NOC(C(=O)Nc3c(C)n(C)n(-c4ccccc4)c3=O)C2)cc1Cl (centres unmarked) | 13.1 |
| CSc1ccc(S(=O)(=O)Nc2ccc(N3CCOCC3)c(Cl)c2)cc1 | 11.3 |
| CCCCNC(=S)NC(=O)c1ccc(Cl)cc1Cl | 13.1 |
| N#Cc1nc(-c2cccs2)oc1NCC1CCCO1 (centres unmarked) | 7.22 |
| Nc1nonc1-c1noc(CCCOc2ccc(Cl)cc2Cl)n1 | -4.56 |
| O/N=C1\CCCc2ccc(Cl)cc21 | -3.21 |
| COc1cccc(N2CCN(S(=O)(=O)c3ccc4c(c3)N(C(C)=O)CCO4)CC2)c1 | -3.26 |
| O=C(NCCc1ccc(Cl)cc1)c1ccc(NC2=NC3CS(=O)(=O)CC3S2)cc1 (centres unmarked) | 21.6 |
| COc1cc(S(=O)(=O)Nc2ncccc2C)c(OC)cc1Cl | 7.45 |
| CC1=C(C(=O)OCc2ccccc2)C(c2cccnc2)c2c(n(C)c(=O)n(C)c2=O)N1 (centres unmarked) | -8.56 |
| O=C1NC(c2ccccc2)=N/C1=C/c1ccco1 | 0.383 |

| Compound | hERG current change (%, negative = inhibition) at 1uM [%] |
| --- | --- |
| O=C(Nc1ncccn1)c1ccc(Cl)c([N+](=O)[O-])c1 | 13.7 |
| O=C(COC(=O)Cc1ccc(Br)cc1)NC1CCCCCC1 | 11.4 |
| COc1cc(C=C2C(=O)OC(C)(C)OC2=O)ccc1OCC(=O)Nc1ccccc1 | 14.3 |
| CCN(CC)CCN1C(=O)C(=O)/C(=C(/O)c2ccc(OC)c(OC)c2)C1c1ccccn1 (centres unmarked) | 10.3 |
| O=C(Nc1ccc(-c2n[nH]c(=S)o2)cc1)c1ccccc1Cl | 13.8 |
| COc1ccccc1C(CNc1ncnc2sc(C)c(C)c12)N(C)C (centres unmarked) | -2.91 |
| COc1ccc(CCN2C(=O)c3cccnc3C2=O)cc1OC | 12.2 |
| COc1ccc(NC(=O)c2ccc3c(c2)S(=O)(=O)c2ccccc2C3=O)cc1 | 9.56 |
| CN1OC[C@@H]2COc3ccc4ccccc4c3[C@@H]21 | 16.9 |
| CCOc1ccc(CNS(=O)(=O)c2c(C)nc3scc(C)n3c2=O)cc1OC | 14.6 |
| COCCNC(=O)Cn1cc(/C=C(\C#N)C(=O)NC2CCCC2)c2ccccc21 | 13.7 |
| CN(CC(=O)Nc1cccc(F)c1)C(=O)c1cn(-c2ccccc2)nc1-c1ccc(F)cc1 | 2.27 |
| Oc1cccc(C=NCc2ccccc2)c1O | 4.4 |
| Cc1nn(-c2ccccc2)c2[nH]c(=O)c(CNCCN3CCOCC3)cc12 | -1.61 |
| Cc1ccc(C(=O)Nc2ccc(C(=O)N3CCCCC3C)cc2)cc1 (centres unmarked) | -2 |
| N#CC(=C=[N-])c1nc2ccccc2nc1-[n+]1ccccc1 | -4.73 |
| Clc1cccc(Cl)c1COc1ccccn1 | 14.5 |
| COc1cc(NC(=O)CSc2nnc3c(C)cc4c(C)ccc(C)c4n23)c(C(=O)O)cc1OC | 17.3 |
| CC(C)(C)c1cc(O)c(C(C)(C)C)cc1O | 6.92 |
| Cc1ccc(C2(C)NC(=O)N(CC(=O)NCc3cccs3)C2=O)cc1 (centres unmarked) | 12.5 |
| Cc1cc(NC(=O)/C=C/c2ccc(Br)cc2)no1 | 18.2 |
| CCc1ccccc1N1CC(C(=O)O)CC1=O (centres unmarked) | -24.2 |
| CCOc1ccc(CN(Cc2ccco2)C(c2cccs2)c2nnnn2C(C)(C)C)cc1 (centres unmarked) | 3.91 |

| Compound | hERG current change (%, negative = inhibition) at 1uM [%] |
| --- | --- |
| COCCCN1C(=O)C(=O)/C(=C(/O)c2ccc(S(=O)(=O)N3CCCCC3)cc2)C1c1ccc(O)cc1 (centres unmarked) | 23.6 |
| COC(=O)c1sc(NC(=O)Cc2cccs2)nc1C | 12 |
| COc1ccc(C)cc1S(=O)(=O)Nc1cccc(Cl)c1Cl | 18.4 |
| O=C(CCCCCN1C(=O)c2ccccc2C1=O)Nc1ccccc1F | 12.5 |
| COCCn1c(C)cc(C(=O)Cn2nc(C(=O)O)c3ccccc3c2=O)c1C | 13.2 |
| Cn1c(=O)n(C)c2cc(/C=N/NC(=S)NCc3ccccc3)ccc21 | 0.876 |
| CC(C)(C)NC(=O)C(c1ccc(O)cc1)N(C(=O)CCC(=O)Nc1nccs1)c1cccc(F)c1 (centres unmarked) | 12.7 |
| CN1CCN(c2nc3c(c(=O)[nH]2)CCC3)CC1 | 18.2 |
| OCCCNCc1cccc2ccccc12 | 8.15 |
| Cc1ccc(C(=O)NNC2CC(=O)N(c3ccc4c(c3)OCCO4)C2=O)cc1 (centres unmarked) | 0.129 |
| O=C(CCn1cnnn1)N1CCCC(Nc2ccc(F)cc2)C1 (centres unmarked) | 5.33 |
| CN(C)c1ccc(C2SCCN2C(=O)c2ccc([N+](=O)[O-])cc2)cc1 (centres unmarked) | -25.9 |
| COCCCNC(=O)c1ccc(Cn2c(=O)c3ccccc3n(Cc3ccccc3C#N)c2=O)cc1 | 8.63 |
| Cc1ccc(NC(=O)COC(=O)C2C3CC4OC(=O)C2C4C3)cc1 (centres unmarked) | 6.18 |
| COC(=O)c1ccc(/C=C(/NC(=O)c2ccccc2)C(=O)N2CCOCC2)cc1 | 18 |
| OCCOc1cccc(CN2CCC(CO)(CCOc3ccccc3)CC2)c1 | -2.72 |
| COc1ccc(NC(=O)c2sc3nc(-c4cccnc4)ccc3c2N)cc1OC | 4.52 |
| Cc1ccc(N2CCN(c3cc(C)nc4nc(C)nn34)CC2)c(C)c1 | -32.9 |
| O=C(COC(=O)CCN1C(=O)c2ccccc2C1=O)Nc1ccccc1[N+](=O)[O-] | 16.6 |
| CCOc1ccc(CN2CCN(CC3=Cc4cccc(OC)c4OC3)CC2CCO)cc1 (centres unmarked) | -71.4 |
